Patent US12338291B2, “Humanized antibody molecules to CD138 and uses thereof” (VISTERRA, INC., priority 2019, dated 2025)
“And” between values parts separate entries of the source, which are not always exact repeats. Equal values may be shown once. Read-outs that look alike come from different tables or passages of the source.

Assays:
[1] = biological target: T1, membrane CD138 on U266 cells (Homo sapiens, UniProt P18827); experiment: Antibody binding to membrane CD138 on U266 cells by flow cytometry; conditions: FIG. 9A, mAb 4320 vs BB4
T1 construct: endogenous in cells; host or cells: U266 human lymphoblastic myeloma cell line
T1 sequence (P18827 23-310): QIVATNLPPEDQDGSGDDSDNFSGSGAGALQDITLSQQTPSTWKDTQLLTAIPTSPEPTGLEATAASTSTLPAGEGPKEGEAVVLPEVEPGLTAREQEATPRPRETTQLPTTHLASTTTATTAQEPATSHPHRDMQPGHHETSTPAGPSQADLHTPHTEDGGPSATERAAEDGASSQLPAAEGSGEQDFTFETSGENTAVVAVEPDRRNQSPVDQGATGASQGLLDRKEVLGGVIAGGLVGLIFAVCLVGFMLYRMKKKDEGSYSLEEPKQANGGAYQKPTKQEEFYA
Procedure: (§1) In one experiment, the humanized variants of monoclonal antibody 2810 were assessed for their capacity to bind to CD138 on the surface of cells. Briefly, the humanized variants of antibody 2810 were produced in HEK 293 cells following transient transfection. The antibodies were then serially diluted three-fold. Antibody binding to membrane CD138 was evaluated using the CD138+ human lymphoblastic myeloma cell line U266 and quantified by flow cytometry. Antibody cell binding was reported as geometric mean fluorescence intensity (MFI). Binding data were plotted using nonlinear regression analysis and a 4-parameter curve fit.
Antibody cell binding was reported as geometric mean fluorescence intensity (MFI). Binding data were plotted using nonlinear regression analysis and a 4-parameter curve fit.

CD138+ RPMI 8226 cells [2] = experiment: Antibody binding to RPMI 8226 cells by flow cytometry; design: species or system human; conditions: FIG. 3
Procedure: as §1
First, humanized anti-CD138 antibody variants 3821, 4321, 4320, 4521, 4326, and 3820 were evaluated for binding to three different CD138+ multiple myeloma related cell lines: MM1.S, LP-1, and RPMI 8226. Antibody binding was measured by flow cytometry as described in Example 15.

CD138+ RPMI 8226 cells [3] = experiment: Luciferase-based ADCC reporter assay against RPMI 8226; format: cell-based, human; conditions: 3-fold dilutions from 10 μg/mL, E:T 10:1, 16 h, FIG. 4
Procedure: In another experiment, the ADCC activity of the humanized variants of anti-CD138 antibody 2810 was assessed. Briefly, the humanized variant antibodies were produced by transient transfection of HEK 293 cells metabolically altered for purposes of reduced Fc fucosylation. The antibodies were then evaluated for antibody dependent cellular cytotoxicity (ADCC) activity against CD138^+ human lymphoblastic myeloma U266 cells in a luciferase based ADCC reporter assay using, as effector cells, engineered Jurkat cells stably transfected with the human FcγRIIIa receptor. U266 cells were incubated with mAbs that were 3-fold serially diluted from a starting concentration of 3 μg/mL and added to effector cells and CD138+U266 multiple myeloma target cells at a cell ratio of effector:target of 10:1. After 16-hour incubation at 37° C., luciferase activity was assessed as a measure of ADCC activity and reported as relative luminescence units (RLU). […]
Second, humanized anti-CD138 antibody variants 3821, 4321, 4320, 4521, 4326, and 3820 were assessed for ADCC activity against U266, MM1.S, LP-1, and RPMI 8226 CD138^+ multiple myeloma cell lines using a luciferase based ADCC reporter assay, as described in Example 15. […] After a 16 hour incubation at 37° C., cellular luciferase levels were quantified as a measure of ADCC activity and reported as relative luminescence units (RLU).

human CD138 peptide 2A = biological target: T2, human CD138 peptide 2A (Homo sapiens, UniProt P18827); experiment: Antigen capture ELISA, binding to CD138 peptide 2A; conditions: FIG. 10
T2 construct: Pep2a; 88-121; 10; 34
T2 sequence (P18827 88-121 limits assumed): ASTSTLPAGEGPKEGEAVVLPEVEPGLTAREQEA
Procedure: 1 or select human CD138 derived peptides (Table 3) was evaluated by antigen capture ELISA. In brief, MaxiSorp™ plates were first coated with antibodies 4320 or BB4 at a 0.5 μg/ml concentration overnight (12-15 hours) at 2-8° C. The immobilized monoclonal antibodies were tested for binding to biotinylated recombinant CD138 extracellular domain or peptides 2A, peptide 6A in 5-fold serial antigen dilutions starting at starting at a 50 nM concentration. HRP-conjugated Anti-biotin secondary antibody (1:10000 dilution) was used for detection.

MM1.S (Luc) cells [4] = experiment: MM.1S Luc xenograft multiple myeloma model in C.B-17 SCID mice, dose escalation (Example 7); format: in vivo
[5] = biological target: T3, CD138 on MM1.S (luc) cells (Homo sapiens, UniProt P18827); experiment: mAb 4320/CD138 binding assay on MM1.S (luc) cells by flow cytometry
T3 construct: endogenous in cells; host or cells: MM1.S (luc) human multiple myeloma cell line (luciferase-expressing)
T3 sequence (P18827 23-310): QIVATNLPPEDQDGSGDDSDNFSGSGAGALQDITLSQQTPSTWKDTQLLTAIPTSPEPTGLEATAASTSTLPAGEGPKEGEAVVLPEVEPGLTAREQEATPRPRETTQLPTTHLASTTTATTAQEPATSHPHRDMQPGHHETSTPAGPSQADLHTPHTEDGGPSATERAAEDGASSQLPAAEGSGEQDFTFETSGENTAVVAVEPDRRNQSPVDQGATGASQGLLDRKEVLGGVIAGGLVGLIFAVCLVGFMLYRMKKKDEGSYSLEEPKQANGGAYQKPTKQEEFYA

CD138+ myeloma cells = experiment: Binding to CD138+ myeloma cells (general statement)
MM1.S (Luc) cells [6] = test system: MM1.S (Luc) cells

B1: mAb 4320: humanized anti-CD138 IgG1 kappa antibody; VH SEQ ID NO: 471, VL SEQ ID NO: 475; HC SEQ ID NO: 527, LC SEQ ID NO: 528 (antibody)
heavy: QVQLVQSGAEVKKPGASVKVSCKASGYSFSSYYMHWVRQAPGQGLEWMGTIHPSDSTTNYNQKFQGRVTMTVDTSTRTAYMELSSLRSEDTAVYYCANFVYWGQGTTVTVSSASTKGPSVFPLAPSSKSTSGGTAALGCLVKDYFPEPVTVSWNSGALTSGVHTFPAVLQSSGLYSLSSVVTVPSSSLGTQTYICNVNHKPSNTKVDKRV[human IgG1 Fc not spelt out]
light: DIVMTQTPLSLSVTPGQPASISCKSSKSLLYKDGKTYLNWFLQKPGQSPQLLIYVVSTRASGVPDRFSGSGSGTDFTLKISRVEAEDVGVYYCQQLVEYPYTFGQGTKLEIKRTVAAPSVFIFPPSDEQLKSGTASVVCLLNNFYPREAKVQWKVDNALQSGNSQESVTEQDSKDSTYSLSSTLTLSKADYEKHKVYACEVTHQGLSSPVTKSFNRGEC
B1 was tested, and the “Antibody cell binding (MFI)” value [1] was “dose-dependent binding”, the “Antibody binding by flow cytometry” value (CD138+ RPMI 8226 cells [2]) was “dose-dependent binding” and the “ADCC activity (RLU)” value (CD138+ RPMI 8226 cells [3]) was “induced ADCC activity”. The “Binding to peptide 2A” value (human CD138 peptide 2A) was “substantially higher affinity than to 6A”, the “Trend in mean body weight” value (MM1.S (Luc) cells [4]; 4 mg/kg mAb 4320) was “upward trend in mean body weight” and the “Mean body weight change” value (MM1.S (Luc) cells [4]; FIG. 16) was < 10%. For the same molecule, the “Median % T/C (whole body BLI)” value (MM1.S (Luc) cells [4]; day 35, vs vehicle control) was 3.4-5.1%, the “Increased median lifespan in comparison to control group” value (MM1.S (Luc) cells [4]; e.g. 4 mg/kg dosing cohort, FIG. 15) was ≥ 20% and the “Dose response of efficacy (whole body or hind limb/spine signal)” value (MM1.S (Luc) cells [4]; mAb 4320 4, 8, 16 mg/kg) was “did not produce a clearly differentiated dose response”. For the same molecule, the Tolerability (MM1.S (Luc) cells [4]; mAb 4320 4-16 mg/kg i.p. twice weekly) was “well tolerated”, the “Animal deaths in treatment groups” value (MM1.S (Luc) cells [4]; mouse, in vivo) was “No animal deaths” and the “Live cells staining positive for mAb 4320” value ([5]; MM1.S (luc), 2.5 μg/mL) was “greater than 96%”. The “Binding to MM1.S (luc) cells” value ([5]; at 2.5 μg/mL) was “robust and saturable binding”, the “Binding to CD138+ myeloma cells” value (CD138+ myeloma cells) was “sub-nanomolar” and the “Change in body weight” value (MM1.S (Luc) cells [6]; FIG. 21) was “upward trend in mean body weight”. For the same molecule, the “Mean body weight change” value (MM1.S (Luc) cells [6]; FIG. 21) was “less than 5%”, the “Survival (animals remaining on study to end of study)” value (MM1.S (Luc) cells [6]; day 73, treatment discontinued day 53) was > 50% and 56% and the “Incidence of complete or partial regression” value (MM1.S (Luc) cells [6]; end of dosing phase) was 22%. The “Tumor growth delay (time to BLI 1.0×10^9 p/s)” value (MM1.S (Luc) cells [6]; mAb 4320 4 mg/kg, bortezomib 1 mg/kg i.p. twice weekly) was 13.9 days, the “Animal deaths in treatment groups” value (MM1.S (Luc) cells [6]; mouse, in vivo) was “No animal deaths” and the “Incidence of complete regression” value (MM1.S (Luc) cells [6]; mouse, in vivo) was 22%. The “Treatment-related death” value (MM1.S (Luc) cells [6]; mouse, in vivo) was “No treatment-related death”.
